# From PMC4336329 (PLoS ONE, 2015)
# About 14,000 (4.5%) of roughly 310,000 compounds showed an effect of 50% or more. The effect is printed as a negative number. This is one part of the list.
# Biological target: human ether-à-go-go-related gene (hERG) potassium channel (human, UniProt Q12809)
# Assay: primary screen, population patch clamp on CHO cells stably expressing hERG
# 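Note: peak tail current of the secondary pulse compared with the same well before compound.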
# Sequence of human ether-à-go-go-related gene (hERG) potassium channel (Q12809 whole entry, looked up): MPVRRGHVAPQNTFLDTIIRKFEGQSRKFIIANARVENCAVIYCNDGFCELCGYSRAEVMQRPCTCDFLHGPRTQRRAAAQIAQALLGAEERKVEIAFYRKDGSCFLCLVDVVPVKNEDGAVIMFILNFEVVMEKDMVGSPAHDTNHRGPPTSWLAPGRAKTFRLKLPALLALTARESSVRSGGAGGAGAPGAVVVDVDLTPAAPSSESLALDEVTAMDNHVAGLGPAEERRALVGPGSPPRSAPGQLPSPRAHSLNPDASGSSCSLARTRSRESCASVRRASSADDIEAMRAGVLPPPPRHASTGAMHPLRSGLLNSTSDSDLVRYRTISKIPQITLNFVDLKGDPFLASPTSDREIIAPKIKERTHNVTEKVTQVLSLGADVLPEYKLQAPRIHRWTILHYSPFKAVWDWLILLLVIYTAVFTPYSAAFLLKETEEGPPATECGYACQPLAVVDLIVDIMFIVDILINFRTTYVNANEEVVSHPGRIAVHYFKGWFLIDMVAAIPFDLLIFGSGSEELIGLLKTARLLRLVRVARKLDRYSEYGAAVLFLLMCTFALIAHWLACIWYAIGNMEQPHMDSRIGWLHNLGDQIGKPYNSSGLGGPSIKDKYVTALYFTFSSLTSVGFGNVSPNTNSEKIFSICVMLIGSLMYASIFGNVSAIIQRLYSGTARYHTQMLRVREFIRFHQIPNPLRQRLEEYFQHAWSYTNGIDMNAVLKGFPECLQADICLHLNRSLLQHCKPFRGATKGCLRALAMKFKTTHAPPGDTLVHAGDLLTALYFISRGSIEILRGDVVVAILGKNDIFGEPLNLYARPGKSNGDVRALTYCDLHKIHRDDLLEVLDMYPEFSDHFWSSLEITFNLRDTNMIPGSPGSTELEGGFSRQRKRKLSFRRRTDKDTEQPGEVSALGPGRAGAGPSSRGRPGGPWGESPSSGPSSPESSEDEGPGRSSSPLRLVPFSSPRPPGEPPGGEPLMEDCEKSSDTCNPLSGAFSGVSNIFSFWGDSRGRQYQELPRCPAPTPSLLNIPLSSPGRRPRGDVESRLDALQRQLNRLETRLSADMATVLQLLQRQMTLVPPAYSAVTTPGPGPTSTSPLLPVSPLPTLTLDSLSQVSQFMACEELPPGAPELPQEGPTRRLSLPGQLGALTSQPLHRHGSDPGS
row,SMILES,"hERG current change (%, negative = inhibition) at 10uM [%]"
1,COC(=O)Cc1c(C)[nH]n(-c2cc(Cl)cc(Cl)c2)c1=O,15.9
2,CCN(CC)c1ccc(CNCCc2ccc(F)cc2)cc1.Cl,-58.8
3,O=c1c([N+](=O)[O-])c(O)c2ccccc2n1Cc1ccccc1,18.2
4,Cc1ccc(S(=O)(=O)Nc2ccc(C(=O)N3CCOCC3)cc2)cc1,20.9
5,CCOC(=O)c1c(C)[nH]c(C)c1S(=O)(=O)N(C)CC(=O)Nc1ccccc1F,-2.7
6,CCOC(=O)CN(Cc1ccccc1)S(=O)(=O)c1ccc(NC(C)=O)cc1,-27.9
7,CCCCn1c(=O)n(CC(=O)Nc2ccc(C)c(Cl)c2)c(=O)c2c1ncn2Cc1ccco1,-6.22
8,COc1cc(CNc2ccc3[nH]c(=O)[nH]c3c2)ccc1OCc1ccc(C)cc1,14.1
9,COc1ccc(-c2nc(N)n(C(C)=O)n2)cc1,-3.64
10,COc1ccc(S(=O)(=O)NC(C)C(=O)Nc2ccc3c(c2)OCCO3)cc1OC (stereo not shown),5.02
11,Cc1sc2nc(C)n(/N=C/c3ccc(O)cc3O)c(=O)c2c1C,19.1
12,Cc1cccc(C(=O)OC(C)C(=O)NC(=O)NC2CCCCC2)c1O (stereo not shown),7.96
13,COC(=O)C1C2C=CC(C3CC23)C1C(=O)OCC(=O)c1ccccc1 (stereo not shown),4.29
14,CSCCC(NS(=O)(=O)c1ccc(Cl)cc1)C(=O)OCC(=O)NC12CC3CC(CC(C3)C1)C2 (stereo not shown),11.5
15,O=C(CSCc1ccc(Cl)cc1)Nc1ccc2c(c1)OCO2,-4.62
16,COc1ccccc1-n1c(C)cc(/C=C2\C(=N)N3N=C(CC(=O)N4CCOCC4)SC3=NC2=O)c1C,6.12
17,O=C(NCCCN1CCOCC1)c1cc(-c2ccc(Br)cc2)nc2ccccc12,-39.7
18,CCc1c(C)sc(NC(=O)OC)c1C(=O)N1CCOCC1,-7.69
19,CCOC(=O)c1cc2c(ccn2C)n1CC(=O)N1CCC(Cc2ccccc2)CC1,-24.1
20,COC(=O)CCN1CCN(S(=O)(=O)c2ccccc2Br)CC1.O=C(O)C(=O)O,1.85
21,CC1=CC(C)=[NH+]c2ccccc2N1.O.[Cl-],9.17
22,COc1ccc(OCc2nnc(SCC(=O)N(C)Cc3ccccc3)n2N)cc1,2.58

row,SMILES,"hERG current change (%, negative = inhibition) at 10uM [%]"
1,Oc1c(Br)cc(Br)cc1C=Nc1ccc2c(c1)OCO2,6.62
2,COC(=O)c1cc(S(=O)(=O)Nc2cccc(C)c2C)cn1C,13.1
3,CCOc1ccc(S(=O)(=O)Nc2ccc(C(=O)NCCCN3CCCC3=O)cc2)cc1,0.2
4,COc1ccc(COC(=O)N/N=C/c2cccs2)cc1,-8.61
5,COc1ccc2oc(C(=O)NC3CCCCC3)c(C)c2c1,-0.357
6,Cc1ccc2c(c1)C(N1CCCC1=O)CC(c1ccco1)N2 (stereo not shown),-10.3
7,CCCNC(=O)CN1CCC(c2nc3ccccc3[nH]2)CC1,15.6
8,CN(C)c1ccc(S(=O)(=O)NCC(=O)OCC(=O)Nc2cccc(Cl)c2)cc1[N+](=O)[O-],-8.27
9,COc1ccc(OC)c(NC(=O)CSc2nnnn2-c2ccccc2F)c1,8.51
10,Cc1ccc(-n2[nH]c(C)c(/C=N/Nc3ccc([N+](=O)[O-])cc3[N+](=O)[O-])c2=O)cc1,23.9
11,COC(=O)c1sccc1NC(=O)c1csc(C)c1,-13.3
12,C/C(CS(=O)(=O)c1ccccc1)=N\O,16.1
13,COCCCn1cnc2oc3nc4ccccc4nc3c2c1=O,-11.7
14,C=CCOc1ccc(CNc2nn[nH]n2)cc1OC,7.39
15,Cc1onc(-c2ccccc2)c1C(=O)N1CCc2ccccc21,14.4
16,O=C(Nc1ccccc1)N(CCN1CCOCC1)Cc1cccc(Cl)c1,-22.7
17,Cc1n[nH]c(=O)c2c1nnn2Cc1ccccc1Cl,9.83
18,Cc1ccc(CN2CC(C(=O)N3CCN(S(=O)(=O)c4cccc(F)c4)CC3)CC2=O)cc1 (stereo not shown),-32.6
19,Cc1cc(=O)oc2cc(OCC(=O)N3CCN(C(=O)C4COc5ccccc5O4)CC3)c(Cl)cc12 (stereo not shown),-48
20,CCOc1ccccc1N(CC(=O)Nc1cccc(OC)c1)S(=O)(=O)c1ccccc1,9.84
21,O=C(O)c1cccc(Nc2nc(-c3ccc([N+](=O)[O-])cc3)nc3ccccc23)c1,7.86
22,O=C(Cn1c(=O)n(-c2ccccc2)c(=O)c2oc3ccccc3c21)Nc1ccccc1,4.87

row,SMILES,"hERG current change (%, negative = inhibition) at 10uM [%]"
1,CNc1ccn(C2CCCO2)c(=O)n1 (stereo not shown),17.9
2,Cc1ccc(C(=O)/C=C\C(=O)c2ccc(C)cc2)cc1,27.3
3,O=C(Cc1ccc(Cl)cc1)N/N=C/c1cccc(O)c1,-28.2
4,Cc1ccc(C(=O)N2CCN(c3ccc(NC(=O)c4cccnc4Cl)cc3)CC2)cc1,-27.8
5,Cc1ccc2cc(C(c3nnnn3C3CCCC3)N3CCOCC3)c(=O)[nH]c2c1C (stereo not shown),-9.02
6,Cc1cccc(Nc2nc(-c3sc(C)nc3C)cs2)c1,9.95
7,CN(Cc1ccccc1)C(=O)c1ccc(NC2=NC3CS(=O)(=O)CC3S2)cc1 (stereo not shown),-7.2
8,CCOc1ccc2nc(N(CCN(CC)CC)C(=O)c3cccc([N+](=O)[O-])c3)sc2c1.Cl,-59.5
9,CC(C)c1ccc(C2C(C(=O)c3ccco3)=C(O)C(=O)N2CCN2CCOCC2)cc1 (stereo not shown),18.5
10,CC(=O)c1cccc(OCc2cc(C(=O)N(C)C(C)c3ccccn3)no2)c1 (stereo not shown),-4.32
11,Cc1[nH]c2ccccc2c1SCc1ccccc1,-23
12,CCS(=O)(=O)N1CCCC(C(=O)NCc2ccccc2Cl)C1 (stereo not shown),-3.54
13,Cc1ccc2c(c1)N(CC(=O)N(Cc1ccccn1)Cc1ccco1)C(=O)C(C(C)C)O2 (stereo not shown),-41.2
14,CCOC(=O)c1c(C)[nH]c(C)c1C(=O)COc1ncnc2cc([N+](=O)[O-])ccc12,-21.2
15,CCCCCCCCSc1nnc(CSc2nc3nc(C)cc(C)n3n2)o1,-16.7
16,COc1ccc(-c2c(-c3ccc(O)cc3O)n[nH]c2C)cc1OC,-20.9
17,O=C(CCc1nnc(CCCCc2ccccc2)o1)NC1CCCC1,-1.55
18,COc1ccc(CCNC(=O)Nc2ccc3c(c2)OCO3)cc1OC,18.8
19,Cc1nc(Cc2nnc(SCC(=O)N3CCN(c4ccc(F)cc4)CC3)o2)cs1,-50.9
20,CC1(C)CC(=O)c2c(O)cc(OCC(=O)Nc3ccc(S(N)(=O)=O)cc3)cc2O1,-4.04
21,CC(C)NC(=O)c1onc(CSc2ccc(F)c(F)c2)c1C(=O)O,5.75
22,COc1ccc2c(c1OC)C(=O)OC2,15.1

row,SMILES,"hERG current change (%, negative = inhibition) at 10uM [%]"
1,COc1ccc(CCNC(=O)c2nnn(CC(=O)Nc3c(C)cc(C)cc3C)c2N)cc1OC,6.67
2,CCCC(C)NC(=O)c1nc(-c2ccccc2)n(-c2ccccc2)n1 (stereo not shown),-55.7
3,Cc1cccc(Cn2c(N3CCN(C)CC3)nc3c2c(=O)[nH]c(=O)n3C)c1,-50.7
4,NNC(=O)c1cc(S(=O)(=O)N2CCOCC2)c[nH]1,2.49
5,Cc1ccc(CNCc2ccccc2Cl)cc1.Cl,-7.02
6,CN1CCN(C(CNS(=O)(=O)c2cccs2)c2cccnc2)CC1 (stereo not shown),-21.4
7,COc1ccc(C)cc1NCC(=O)Nc1ccc(C(C)(C)C)cc1,9.01
8,COc1ccc(C)cc1S(=O)(=O)N1CCCC(C(=O)NCc2ccccn2)C1 (stereo not shown),-2.73
9,CCc1ccc(NC(=O)CSc2nc3ccccc3c(=O)n2CCCN2CCC(C)CC2)cc1,-67.2
10,Cc1ccc(SCc2nc(-c3ccccc3)no2)cc1,2.3
11,Cc1ccc(OCCC(=O)Nc2ccc(F)c(F)c2)cc1,-5.62
12,NS(=O)(=O)c1ccc(CNC(=O)Cc2ccccc2[N+](=O)[O-])cc1,17.8
13,COc1ccc(CN(C)C(=O)c2cnc(C)cn2)c(OC)c1OC,24.5
14,O=C1/C(=C/c2ccncc2)SC(=S)N1C1CCS(=O)(=O)C1 (stereo not shown),4.52
15,CCN(CC)CCOC(=O)c1ccc(Cl)cc1.Cl,-42.7
16,Cc1ccc2c(c1)CCCN2C(=O)c1ccoc1C,-7.85
17,CCOC(=O)CCc1c(C)c(C#N)c2nc3ccccc3n2c1-n1ccnc1C,-45.2
18,COC(CNC(=O)c1ccc2c(c1)nc(C)n2-c1cccc(C)c1)OC,0.933
19,Cc1ccccc1C(=O)Nc1cccc(-c2ccc3nncn3n2)c1,-2.94
20,Cc1nn(-c2ccccc2)c2c1C(c1ccc3c(c1)OCO3)SCC(=O)N2 (stereo not shown),-9.35
21,O=C(Cc1ccccc1)Nc1ccccc1N1CCCC1,9.76
22,CCOc1ccc(C(=O)COC(=O)c2cccc(-n3cnnn3)c2)cc1,-23.8
